Among all 410,000 compounds or so, about 530 (0.13%) were called active. The inconclusive results got no clear call from the source; some entries with a clear call stand among them for comparison. The call rests on the fitted dose curve; in most records, active means well fitted inhibition curve with a large enough effect; inconclusive means small, poorly fitted or top-dose-only effect, or another doubt; inactive means no such curve, though single readings can be large or run the other way. A potency beside an inconclusive call is a rough fit, not a confirmed value.
Experiment: qHTS of GLP-1 Receptor Inverse Agonists: Cytotox Screen
Details: HEK293 cAMP-luciferase reporter cells, luminescence, 24 h; activity change, negative = inhibition: at 38.3 µM (top of the series)
Text: The overall goal of this project was to develop a novel assay for discovering small molecule ligands for class B1 G protein-coupled receptors (GPCRs). Very few agonists (or inverse agonists) with generally weak activity for this entire group of physiologically important receptors are known to date. To establish proof-of-principle that this critical bottleneck can be overcome with a suitable screening approach, our studies focused on the class B1 receptor for glucagon-like peptide-1 (GLP-1R), a potential therapeutic target for diabetes and neurodegenerative disease.
The assay was developed using a cell-based functional readout. Toward this goal, stably transfected HEK293 cell clones were established that co-express (i) a cAMP-responsive luciferase reporter gene, and (ii) constitutively active GLP-1R that upon ligand interaction inhibit (inverse agonists) the luciferase activity. In addition, two control cell lines were developed: (i) one that express only the cAMP-responsive reporter gene to enable initial exclusion of GLP-1R independent effects of candidate probes; and (ii) one with the reported gene cloned with another constitutively active orphan receptor GPR119 to enable exclusion of GLP-1R independent inhibitor effects of candidate inverse agonists.
To that end, this assay was optimized for 1536-well format and screened against the MLSMR. Then the same collection was run in this cytotoxicity assay where inhibition was the undesired outcome.
NIH Molecular Libraries Probe Production Network [MLPCN]
NIH Chemical Genomics Center [NCGC]
PI Name: Martin Beinborn, Tufts Medical Center
Six ul of cell suspension (200 cells/uL in DMEM + 10% Nu serum + 1% pen-strep) is dispensed in a white solid 1536-well plate. The plates are incubated for 12 hours at 37 deg C at 5% CO2 followed by addition of 23 nL compounds. After 24 hr incubation at 37 deg C and 5% CO2, 3 uL of luciferase assay detection reagent is added. A luminescence read is obtained on the PerkinElmer Viewlux after 12 min incubation at room temperature.
On the % scale 0 is the no-effect control and ±100 the full control effect; potency means the concentration at half of the fitted maximal effect.

Row | Compound | Potency | activity change, negative = inhibition
1 | CC(=O)Nc1nc(C)c(-c2csc(Nc3cccc([N+](=O)[O-])c3)n2)s1 | inconclusive: 14.1 µM [inhibitor, partial curve, poor fit] | –
2 | Cc1ccc(CCNC(=O)c2ccc(CNS(=O)(=O)c3ccc(F)cc3)cc2)cc1 | – | inactive: 0.141%
3 | CCNC(=O)C1(C)CCCN(C(=O)c2ccc3ccccc3n2)C1 (configuration not stated) | inconclusive: 28.2 µM [inhibitor, partial curve, poor fit] | –
4 | COC(=O)c1cccc(NC(=O)c2ccc(OC)c(Cl)c2)c1 | – | inactive: -4.2%
5 | O=C(NCc1nnc(SCc2ccc(F)cc2)n1-c1ccc(F)cc1)C12CC3CC(CC(C3)C1)C2 | inconclusive: 31.6 µM [inhibitor, single point] | –
6 | COc1ccc(S(=O)(=O)Nc2c(O)ccc3ccccc23)cc1OC | inconclusive: 28.2 µM [inhibitor, single point] | –
7 | O=[N+]([O-])/C=C\c1ccc(N2CCOCC2)cc1 | inconclusive: 28.2 µM [inhibitor, single point] | –
8 | COc1ccc(NC(=S)N(CCN2CCOCC2)Cc2ccccc2F)cc1 | – | inactive: 0.51%
9 | c1ccc(-c2noc(-c3ccc4ccccc4c3)n2)cc1 | – | inactive: -15.1%
10 | O=C(CCC(=O)N1CCOc2ccccc21)NCCCN1CCCCC1 | – | inactive: -7.77%
11 | COc1ccc(CNS(=O)(=O)c2csc(C(N)=O)c2)cc1OC | inactive | –
12 | CCOC(=O)c1sc(NC(=O)Nc2ccc(Cl)cc2)cc1C | inconclusive: 22.4 µM [inhibitor, single point] | –
13 | CCC1=C(c2ccc(C)cc2)S(=O)(=O)N=C1N1CCC(C(=O)NCCc2cccc(OC)c2)CC1 | – | inactive: -4.37%
14 | NNC(=S)NCc1cccnc1 | inconclusive: 31.6 µM [inhibitor, single point] | –
15 | COc1ccccc1-c1c(C)nn2c(N3CCC(C(N)=O)CC3)cc(C)nc12 | inconclusive: 3.16 µM [inhibitor, full curve] | –
16 | CCc1ccccc1NC(=S)/N=C(\N)Nc1nc(C)c2cc(C)ccc2n1 | inconclusive: 20 µM [inhibitor, single point] | –
17 | Cc1cc(C)cc(NC(=S)Nc2ccccn2)c1 | inconclusive: 3.98 µM [inhibitor, full curve, poor fit] | –
18 | O=C(O)C(=O)Nc1nc(-c2ccc3c(c2)OCCO3)cs1 | – | inactive: -0.115%
19 | Cc1scc(C(=O)NNC(=S)NCC2CCCO2)c1C (configuration not stated) | inconclusive: 10 µM [inhibitor, single point] | –
20 | CCOc1cc(/C=N/NC(=O)N/N=C/c2ccc(O)c(OCC)c2)ccc1O | inconclusive: 5.01 µM [inhibitor, full curve, poor fit] | –
21 | NC(=O)CC(NC(=O)Cc1ccc(Br)cc1)c1ccc(NCc2cc(F)ccc2F)c([N+](=O)[O-])c1 (configuration not stated) | inconclusive: 11.2 µM [inhibitor, single point] | –
22 | Cc1ccc(OC(F)F)c(NC(=O)Nc2cccc(C(F)(F)F)c2)c1 | inconclusive: 12.6 µM [inhibitor, single point] | –
23 | COc1cc2c(cc1OC)C(C)N(S(=O)(=O)c1cnc(Cl)c(Cl)c1)CC2 (configuration not stated) | inconclusive: 10 µM [inhibitor, partial curve, poor fit] | –
24 | CC(=N\Nc1ccccc1)/C(=N/O)C(=O)Nc1ccccc1 | – | inactive: -12.6%

Row | Compound | Potency | activity change, negative = inhibition
25 | Cc1ccc(Cl)c(OCCN2CCCC(C)C2)c1 (configuration not stated) | – | inactive: 11%
26 | COc1ccc(C(=O)c2ccc(N(C)C)cc2)c2ccccc12 | inconclusive: 2 µM [inhibitor, full curve, poor fit] | –
27 | CC(=O)c1cccc(NCC(=O)c2ccc(C)c([N+](=O)[O-])c2)c1 | – | inactive: -7.31%
28 | CCOC(=O)Cc1csc(NC(=S)NC(=O)c2ccc(F)cc2)n1 | inconclusive: 11.2 µM [inhibitor, single point] | –
29 | COC(=O)NCC(c1ccco1)N1CCN(c2ccc(F)cc2)CC1 (configuration not stated) | – | inactive: -11%
30 | O=C(O)c1ccc(Cl)c(S(=O)(=O)Nc2ccccc2C(=O)Nc2ccc(Cl)cc2)c1 | – | inactive: -9.25%
31 | CCOC(=O)C1=C(CNCc2ccc(Cl)cc2)NC(=O)NC1c1ccccc1 (configuration not stated) | – | inactive: 0.652%
32 | CCOC(=O)c1ccc(NC(=O)C2CCCN(c3cnccn3)C2)cc1 (configuration not stated) | inconclusive: 28.2 µM [inhibitor, single point] | –
33 | Cn1cccc1C(=O)OCC(=O)N1CCc2ccccc2C1 | – | inactive: 1.51%
34 | CCCN1CCC(=NNc2ccc(S(=O)(=O)N(CC)CC)cc2[N+](=O)[O-])CC1 | inconclusive: 14.1 µM [inhibitor, single point] | –
35 | COCc1nnc(NC(=O)COc2ccc3c(c2)OCO3)s1 | – | inactive: -1.36%
36 | CN(C)c1ccc(N=Nc2ccccc2C(=O)OCC(=O)Nc2ccccc2C(F)(F)F)cc1 | inconclusive: 14.1 µM [inhibitor, partial curve, poor fit] | –
37 | CCCc1[nH]n(-c2nc3ccccc3s2)c(=O)c1C=NCC(C)C | inconclusive: 10 µM [inhibitor, partial curve, poor fit] | –
38 | COc1cc([N+](=O)[O-])ccc1NC(=O)N1CCC2(CC1)Nc1cc(F)ccc1-n1cccc12 | – | inactive: -21.2%
39 | Fc1ccc(/C=N/NC(=S)Nc2cccnc2)cc1 | inconclusive: 3.16 µM [inhibitor, full curve] | –
40 | CCC(NC(=S)NCc1ccc(F)cc1)c1ccc(C(C)C)cc1 (configuration not stated) | inconclusive: 5.01 µM [inhibitor, full curve, poor fit] | –
41 | COc1cc(OC)c(NC(=O)CSc2nc3ccncc3[nH]2)cc1Cl | – | inactive: -4.37%
42 | COc1ccc2c(=O)cc(-c3cccnc3)oc2c1OC | inconclusive: 2 µM [inhibitor, partial curve, poor fit] | –
43 | CC(=O)CC(c1ccccc1)S(=O)(=O)c1ccc(C)cc1 (configuration not stated) | inconclusive: 6.31 µM [inhibitor, partial curve, poor fit] | –
44 | O=C(COC(=O)c1cc2ccccc2cc1O)NC(=O)NCc1ccco1 | inconclusive: 12.6 µM [inhibitor, partial curve, poor fit] | –
45 | Cc1ccc(S(=O)(=O)c2cn(C)c3cc(N4CCN(C)CC4)c(F)cc3c2=O)c(C)c1 | inconclusive: 15.8 µM [inhibitor, partial curve, poor fit] | –
46 | CC1(C)CNc2cc(N)ccc2S1 | inconclusive: 10 µM [inhibitor, single point] | –
47 | COc1ccc(N2CCN(C(=O)CNC(=O)c3cccc(Br)c3)CC2)cc1 | inconclusive: 28.2 µM [inhibitor, single point] | –
48 | CCOC(=O)N1CCC(Nc2nc3ccccc3nc2NS(=O)(=O)c2ccc(Cl)cc2)CC1 | inconclusive: 20 µM [inhibitor, single point] | –

Row | Compound | Potency | activity change, negative = inhibition
49 | CCCCc1ccc(NC(=O)C2CCCC2)cc1 | – | inactive: -6.67%
50 | CCOc1ccc(NS(=O)(=O)c2ccc(C(=O)NCC(c3cccs3)N3CCOCC3)cc2)cc1 (configuration not stated) | inconclusive: 28.2 µM [inhibitor, single point] | –
51 | CCOc1ccc(Nc2c(S(=O)(=O)c3ccccc3)cnc3ccc(CC)cc23)cc1 | – | inactive: -12.9%
52 | O=C1C2C3C=CC(CO)(O3)C2C(=O)N1c1ccccc1-c1ccccc1 (configuration not stated) | inconclusive: 28.2 µM [inhibitor, single point] | –
53 | O=C(NNC(=O)C1CCC1)c1ccc(F)cc1 | – | inactive: 1.4%
54 | COc1cc(C(=O)NCc2nnc(SCC(=O)Nc3nc4ccccc4s3)o2)cc(OC)c1OC | inconclusive: 6.31 µM [inhibitor, partial curve, poor fit] | –
55 | COc1cc2sc3ccc(-c4ccc(CN5CCOCC5)cc4)cc3c(=O)c2cc1OC | – | inactive: -30.2%
56 | COc1ccc(CCNC(=O)c2cc(-c3ccc(C)cc3O)n[nH]2)cc1OC | inconclusive: 3.98 µM [inhibitor, full curve] | –
57 | CCOc1ccc(-c2cnc3n2CCC3)cc1 | inconclusive: 10 µM [inhibitor, partial curve, poor fit] | –
58 | O=C1NC(=S)N(C(=O)c2ccc(F)cc2)/C1=C/c1ccccc1 | inconclusive: 8.91 µM [inhibitor, single point] | –
59 | COc1ccc(CCNC(=S)Nc2cc(C)cc(C)c2)cc1 | inconclusive: 14.1 µM [inhibitor, single point] | –
60 | Cc1ccc(NC(=O)Cc2coc3c(C)c(C)ccc23)c(C)c1 | – | inactive: 8.52%
61 | CCCCCCn1c(/C=C/c2ccccc2)nc2ccccc21 | – | inactive: -2.01%
62 | COc1ccc(Sc2ccc(NC(=O)c3ccccc3Cl)cc2C#N)cc1 | inconclusive: 3.55 µM [inhibitor, partial curve, poor fit] | –
63 | COc1ccc(OCC(=O)N/N=C/C(C)=C/c2ccco2)c(Br)c1 | inconclusive: 20 µM [inhibitor, single point] | –
64 | COc1cc(CNc2ccc(C)c(C)c2)cc(OC)c1OC | inconclusive: 10 µM [inhibitor, single point] | –
65 | COc1ccc(CNC(=O)CN2CCC(C(=O)c3ccc(OC)cc3)CC2)cc1 | inconclusive: 2.51 µM [inhibitor, full curve, poor fit] | –
66 | CCc1nn(CCCC(=O)NCc2ccc(OC)c(OC)c2)c(=O)c2cc3occc3n12 | – | inactive: -2.09%
67 | COC(=O)C1CCN(c2csc3ccc(C)cc3c2=O)CC1 | – | inactive: -1.91%
68 | Cc1ccc(Cc2c[nH]c(=S)s2)cc1 | inconclusive: 11.2 µM [inhibitor, single point] | –
69 | O=C(NC(=S)Nc1ccc(S(=O)(=O)N2CCCCC2)cc1)c1cccs1 | inconclusive: 28.2 µM [inhibitor, single point] | –
70 | Cc1onc(-c2ccccc2Cl)c1C(=O)NNC(=O)c1ccccc1F | – | inactive: -4.86%
71 | COc1cccc(-c2csc(N3CCN(C(=O)Nc4ccc(F)cc4)CC3)n2)c1 | inconclusive: 10 µM [inhibitor, partial curve, poor fit] | –
72 | COc1ccccc1C1c2ccc3ccccc3c2Oc2ncn(CCCO)c(=N)c21 (configuration not stated) | inconclusive: 10 µM [inhibitor, partial curve, poor fit] | –

From PubChem BioAssay AID624418 (National Center for Advancing Translational Sciences (NCATS), 2012)
